Some of the results follow. Sequences were assembled here from the parent chain. Inactive controls read about 0.05.
B1: TEV protease; numbered along this chain (parent)
chain: MGESLFKGPRDYNPISSSICHLTNESDGHTTSLYGIGFGPFIITNKHLFRRNNGTLVVQSLHGVFKVKDTTTLQQHLVDGRDMIIIRMPKDFPPFPQKLKFREPQREERICLVTTNFQTKSMSSMVSDTSCTFPSGDGIFWKHWIQTKDGQCGSPLVSTRDGFIVGIHSASNFTNTNNYFTSVPKNFMELLTNQEAQQWVSGWRLNADSVLWGGHKVFMVKPEEPFQPVKEATQL

Variants of: B1
Test: raw area under fraction-flipped curve 0-4 h after induction (AUC4h, not background-subtracted), DNA-recorder readout of cleavage of the substrate (dimensionless); higher = more cleavage of the substrate by the protease variant
Conditions: temperature: 34 °C; time window: 0-4 h after rhamnose induction
Description: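 In vivo DNA recorder in E. coli TOP10(DE3) ΔrhaA at 34 °C. Each TEVp single-site mutant (parent TEVp 0) is paired with a single-site variant of the 7-mer TEVs (canonical ENLYFQ|S). The substrate sits between flexible linkers in a Bxb1-sfGFP-TEVs-SsrA fusion, so cleavage stabilises Bxb1 and speeds flipping of a recombination array, read by NGS. The value is the raw area under the fraction-flipped curve over 0-4 h after rhamnose induction (AUC4h), with ≥20 reads per time point. It is not background-subtracted; inactive controls average about 0.047.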
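Note: Bxb1 expression induced with 0.2% (w/v) L-rhamnose at OD600 near 0.5, cultures sampled hourly, flipped fraction per protease–substrate barcode pair counted by paired-end Illumina sequencing.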

Row | Variant | area with substrate ENAYFQS | area with substrate ENCYFQS | area with substrate ENDYFQS | area with substrate ENEYFQS | area with substrate ENIYFQS | area with substrate ENKYFQS | area with substrate ENMYFQS | area with substrate ENNYFQS | area with substrate ENPYFQS | area with substrate ENQYFQS | area with substrate ENRYFQS | area with substrate ENSYFQS | area with substrate ENTYFQS | area with substrate ENVYFQS | area with substrate ENWYFQS | area with substrate ENYYFQS | area with substrate ENFYFQS | area with substrate ENGYFQS | area with substrate ENHYFQS
1 | M219S | 0.0581 | 0.0566 | 0.0525 | 0.0487 | 0.0886 | 0.0623 | 0.0732 | 0.0526 | 0.0641 | 0.0592 | 0.0609 | 0.0556 | 0.0554 | 0.0612 | 0.0239 | 0.0575 |  |  | 
2 | V220M | 0.0572 | 0.0721 | 0.0523 | 0.0553 | 0.129 | 0.0537 |  | 0.0567 |  | 0.0584 | 0.0644 | 0.049 | 0.0456 |  |  | 0.0449 | 0.0623 | 0.0656 | 
3 | V220W | 0.0619 | 0.0562 | 0.062 | 0.0707 | 0.0864 |  | 0.117 | 0.0629 |  | 0.0626 |  | 0.0704 | 0.0581 | 0.0744 |  |  | 0.057 | 0.0587 | 0.057
4 | K221F | 0.0297 | 0.0582 | 0.0542 | 0.0487 |  |  | 0.0579 | 0.0498 |  | 0.0566 | 0.0548 | 0.065 | 0.0562 | 0.0696 |  | 0.0465 | 0.0708 | 0.0545 | 0.0534
5 | P222D | 0.0566 |  | 0.0587 | 0.0581 |  | 0.0588 |  | 0.0488 | 0.0631 | 0.0614 |  | 0.0537 | 0.0593 |  | 0.0095 | 0.0564 | 0.0481 | 0.0631 | 
6 | P222F | 0.0555 | 0.0574 | 0.0628 | 0.0577 | 0.0931 |  | 0.0629 |  | 0.0044 | 0.0472 | 0.0591 | 0.0662 | 0.064 | 0.0637 | 0.0514 | 0.0616 | 0.0574 | 0.0604 | 0.0555
7 | E223I | 0.0647 |  | 0.0623 | 0.0574 | 0.135 |  |  | 0.0753 | 0.0733 | 0.0647 | 0.0679 | 0.0669 | 0.0642 |  |  |  |  | 0.0632 | 0.0569
8 | F226H | 0.0557 | 0.0604 | 0.0328 | 0.0545 | 0.137 | 0.0603 |  | 0.0649 | 0.0437 | 0.0728 | 0.053 | 0.0674 | 0.0564 | 0.0534 |  | 0.0617 | 0.0676 | 0.0856 | 0.0734
9 | F226M | 0.0574 | 0.0629 | 0.0562 | 0.0583 |  |  | 0.0801 | 0.0434 | 0.0443 |  | 0.0581 | 0.0587 | 0.11 | 0.006 | 0.0641 |  | 0.0557 | 0.0636 | 0.0715
10 | F226N | 0.0652 | 0.0732 | 0.0826 | 0.053 | 0.0983 | 0.0457 | 0.0775 | 0.0583 | 0.0575 | 0.059 | 0.0601 | 0.0645 | 0.0636 | 0.0729 | 0.0598 | 0.0688 | 0.0602 | 0.0643 | 0.132
11 | Q227L | 0.0625 | 0.0639 | 0.0577 | 0.0644 |  | 0.0531 | 0.0822 | 0.0728 | 0.0533 | 0.0586 | 0.0532 | 0.0673 |  | 0.0767 | 0.0422 | 0.0505 | 0.0459 | 0.0534 | 
12 | Q227V | 0.0728 | 0.0638 |  | 0.0585 |  | 0.0515 |  | 0.0703 | 0.052 | 0.0799 | 0.0812 | 0.0619 |  | 0.0896 |  |  | 0.0782 | 0.124 | 0.0623
13 | V229C | 0.0475 | 0.0633 | 0.0943 | 0.0589 | 0.0982 | 0.0546 | 0.0348 | 0.0619 | 0.0508 | 0.0617 | 0.0537 | 0.0657 | 0.0675 | 0.0774 |  | 0.0588 | 0.0679 | 0.065 | 
14 | V229F | 0.0647 | 0.0694 | 0.0439 | 0.0602 | 0.108 |  | 0.0765 | 0.0624 | 0.0513 | 0.0606 |  | 0.0559 | 0.0595 | 0.105 |  |  | 0.0798 | 0.0651 | 0.0612
15 | K230D | 0.0575 | 0.0813 | 0.0608 | 0.0508 |  | 0.0456 |  | 0.0672 |  | 0.0594 | 0.0591 | 0.0668 |  | 0.0562 |  |  | 0.0701 | 0.0494 | 0.0577
16 | K230N | 0.0587 | 0.0605 | 0.0697 | 0.0485 | 0.111 | 0.0626 | 0.0542 | 0.0691 | 0.0522 | 0.0627 | 0.0549 |  |  | 0.0623 | 0.0636 | 0.0626 | 0.0576 | 0.0718 | 0.081
17 | E231C | 0.055 |  | 0.0651 |  | 0.103 | 0.0662 | 0.101 |  |  |  | 0.0303 | 0.0656 | 0.0689 | 0.0886 | 0.0476 | 0.059 |  | 0.0667 | 0.0583
18 | Q234W | 0.0497 | 0.0439 | 0.0606 | 0.0549 |  | 0.0692 | 0.0669 |  |  | 0.0481 |  | 0.0765 |  |  |  | 0.0616 | 0.0539 | 0.0639 | 0.0517
19 | R10M |  | 0.0682 | 0.0497 | 0.0577 |  |  | 0.0665 | 0.0582 | 0.0549 | 0.0592 | 0.0605 | 0.0637 | 0.0479 | 0.083 | 0.0412 | 0.0598 | 0.055 | 0.0643 | 
20 | N13L |  | 0.0656 | 0.0574 | 0.0445 | 0.121 | 0.0589 | 0.0695 | 0.0701 | 0.0653 | 0.0571 |  | 0.0589 | 0.054 | 0.0904 |  | 0.0739 | 0.0589 |  | 0.0418
21 | H21C |  | 0.0659 |  | 0.0559 |  |  | 0.0647 | 0.032 | 0.0688 | 0.055 | 0.0527 | 0.0617 | 0.0669 | 0.0571 |  | 0.0646 |  | 0.0467 | 0.0584
22 | H21Q |  | 0.0719 | 0.0666 | 0.0543 | 0.0822 | 0.0479 |  | 0.0642 | 0.0234 | 0.0526 | 0.0544 | 0.0556 | 0.0518 | 0.0704 | 0.048 |  | 0.0555 | 0.0606 | 0.0639
23 | L22I |  | 0.0685 | 0.062 | 0.0516 | 0.097 | 0.0579 |  | 0.0462 | 0.0604 | 0.0604 | 0.0661 | 0.0378 | 0.0618 | 0.0762 |  | 0.0638 |  | 0.0552 | 0.117
24 | N24E |  | 0.0648 | 0.0554 | 0.0591 | 0.1 |  |  | 0.0657 |  | 0.0552 | 0.0443 | 0.0442 | 0.0721 | 0.0554 |  |  | 0.0646 | 0.0698 | 0.0613

— the supplement of paper PMC12217912
